Earlier results on 37 sequences are cited in article PMC11006913.

Positions count from the first letter of the chain named. The list shows a part of the results.

Common to all, as to settings: PBM; conditions not shown; double strand, one strand shown; scale: upbm affinity estimate (log intensity, higher = more binding, comparable within an allelic series)
Data set [1] addresses T1, HESX1 E149K (Homo sapiens) (UniProt Q9UBX0).
T1 sequence: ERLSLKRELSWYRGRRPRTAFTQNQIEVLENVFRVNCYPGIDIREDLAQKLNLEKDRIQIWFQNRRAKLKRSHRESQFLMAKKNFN

Data set [2] addresses T2, HESX1 N125S (Homo sapiens) (UniProt Q9UBX0).
T2 sequence: T1 sequence with N31S, K55E

Data set [3] has as its target T3, HESX1 R160C (Homo sapiens) (UniProt Q9UBX0).
T3 sequence: T1 sequence with K55E, R66C

Data set [4] addresses HOXD13 I297V (Homo sapiens) (UniProt P35453).
Data set [5] addresses HOXD13 I322L (Homo sapiens) (UniProt P35453).
Data set [6] addresses HOXD13 N298S (Homo sapiens) (UniProt P35453).
Data set [7] deals with HOXD13 Q325K (Homo sapiens) (UniProt P35453).
Data set [8] has as its target HOXD13 Q325R (Homo sapiens) (UniProt P35453).
Data set [9] deals with HOXD13 R306W (Homo sapiens) (UniProt P35453).
The target of data set [10] is HOXD13 S316C (Homo sapiens) (UniProt P35453).
Another data set deals with ISX (Homo sapiens) (UniProt Q2M1V0).
Another data set has as its target ISX R83Q (Homo sapiens) (UniProt Q2M1V0).
Data set [11] addresses NKX2-5 K183E (Homo sapiens) (UniProt P52952).
The target in data set [12] is NKX2-5 R161P (Homo sapiens) (UniProt P52952).
The target of data set [13] is NKX2-5 R190C (Homo sapiens) (UniProt P52952).
A further data set addresses T4, PBX4 (Homo sapiens) (UniProt Q9BYU1).
T4 sequence: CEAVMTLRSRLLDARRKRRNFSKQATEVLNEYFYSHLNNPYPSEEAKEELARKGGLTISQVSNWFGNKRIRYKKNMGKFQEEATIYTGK

In data set [14] the target is T5, PBX4 R215Q (Homo sapiens) (UniProt Q9BYU1).
T5 sequence: T4 sequence with R19Q

In data set [15] the target is PROP1 R112Q (Homo sapiens) (UniProt O75360).
Data set [16] deals with PROP1 R99Q (Homo sapiens) (UniProt O75360).
For data set [17], the target named is PITX2 L100Q (Homo sapiens) (UniProt Q99697).
In data set [18] the target is PITX2 R108H (Homo sapiens) (UniProt Q99697).
In data set [19] the target is PITX2 R130W (Homo sapiens) (UniProt Q99697).
Data set [20] concerns the target PITX2 T114P (Homo sapiens) (UniProt Q99697).

With CAGTGCGC [8-mer CAGTGCGC], the binding signal in data set [1] was 9.93; in [2], 7.67; in data set [3] it was 10.2.

As for AGCCGGGG [8-mer AGCCGGGG], the binding signal in [1] was 9.84; in [2], 7.61; in [3], 9.82.

Take AGCACCCC [8-mer AGCACCCC]: the binding signal was 9.96 in data set [1], 7.74 in data set [2] and 10.2 in data set [3].

Turning to GTCGCCTA [8-mer GTCGCCTA], the binding signal was 10 in data set [1], 7.61 in data set [2] and 10 in data set [3].

Regarding AGTGCGCC [8-mer AGTGCGCC], the binding signal in [1] is 9.91; in data set [2], 7.7; in data set [3], 10.

As to AGCGACGA [8-mer AGCGACGA], the binding signal in [1] is 10; in data set [2], 7.93; in [3] it was 10.1.

For ATTAGTGG [8-mer ATTAGTGG], the results for the binding signal in data set [1], in data set [2] and in [3] were 11, 10.1 and 10.3, respectively.

Turning to CCCGGTGC [8-mer CCCGGTGC], the figures for the binding signal in data set [1], in [2] and in data set [3] were 9.95, 7.8 and 9.97, respectively.

Regarding GACGAGCC [8-mer GACGAGCC], the binding signal was 10 in data set [1], 7.61 in [2] and 10.2 in [3].

Regarding CGTAGGCC [8-mer CGTAGGCC], the binding signal is 10 in [1], 7.69 in data set [2] and 10.2 in [3].

Regarding CTCGCCCC [8-mer CTCGCCCC], the binding signal is 9.91 in data set [1], 7.86 in data set [2] and 10 in data set [3].

Turning to TGATTAAA [8-mer TGATTAAA], the binding signal in data set [1] is 11; in data set [2], 10.2; in data set [3], 10.4.

Turning to GCTCGCCC [8-mer GCTCGCCC], the binding signal in data set [1] was 9.93; in data set [2], 7.77; in [3] it was 10.

Turning to ACCCCCAC [8-mer ACCCCCAC], the binding signal in data set [1] was 9.87; in data set [2], 7.71; in data set [3], 10.

Consider CCGACTCC [8-mer CCGACTCC], for which the binding signal is 9.96 in [1]; 7.67 in data set [2]; 10.1 in [3]; 9.5 in [4]; 9.46 in [5]; 9.46 in data set [6]. In addition, the binding signal in data set [7] was 9.5; in [8], 9.44; in [9], 9.44; in data set [10], 9.51.

For AGGGGGCA [8-mer AGGGGGCA], the binding signal was 9.92 in [1]; 7.76 in [2]; 10.1 in data set [3]; 9.63 in [4]; 9.35 in [5]; 9.59 in [6]. For the same sequence, the binding signal in data set [7] was 9.55; in data set [8], 9.47; in data set [9] it was 9.41; in [10], 9.46.

AACGGGCC [8-mer AACGGGCC]: the binding signal in data set [1] was 10; in data set [2], 7.71; in data set [3], 10.

As to GCTCCTCC [8-mer GCTCCTCC], the binding signal in [1] is 9.86; in [2] it was 7.5; in [3] it was 10.1; in [4] it was 9.43; in data set [5], 9.36; in [6], 9.51. Besides, the binding signal in [7] is 9.28; in data set [8], 9.31; in data set [9], 9.42; in [10] it was 9.53.

As to AATTATAA [8-mer AATTATAA], the binding signal in data set [1] is 11.3; in [2] it was 11.4; in data set [3] it was 10.2; in the data set with ISX (Homo sapiens), 14.6; in the data set with ISX R83Q (Homo sapiens) it was 13.2.

In the case of CCTGGGCA [8-mer CCTGGGCA], the binding signal in data set [1] is 9.84; in data set [2], 7.76; in data set [3], 9.96.

Regarding CCCCCCGG [8-mer CCCCCCGG], the binding signal in [1] is 9.4; in data set [2], 7.33; in data set [3], 9.79; in data set [4], 8.74; in data set [5], 8.74; in [6] it was 8.72. Moreover, the binding signal in data set [7] is 9.25; in [8], 9.13; in [9] it was 8.87; in data set [10], 8.76; in data set [11], 9.47; in data set [12], 9.46. The binding signal is 9.61 in data set [13]; 9.21 with PBX4 (Homo sapiens); 9.56 in data set [14]; 10.5 in data set [15]; 10.6 in data set [16].

For AGGCGCCC [8-mer AGGCGCCC], the binding signal was 9.73 in [1]; 7.56 in [2]; 9.92 in data set [3]; 9.41 in data set [4]; 9.31 in data set [5]; 9.43 in [6]. For the same sequence, the binding signal is 9.25 in [7], 9.39 in data set [8], 9.22 in data set [9] and 9.28 in data set [10].

CAAGCACC [8-mer CAAGCACC]: the results for the binding signal in data set [1], in [2] and in data set [3] were 10.1, 7.68 and 10.1, respectively.

As for GGACGCCC [8-mer GGACGCCC], the binding signal was 9.83 in data set [1], 7.42 in data set [2] and 10 in data set [3].

For CACAATTA [8-mer CACAATTA], the binding signal in data set [1] was 11.3; in data set [2] it was 11; in data set [3] it was 10.3; with ISX (Homo sapiens), 14.6; in the data set with ISX R83Q (Homo sapiens), 12.8.

CCACCATC [8-mer CCACCATC]: the binding signal in [1] is 10; in data set [2], 7.94; in [3], 10.

Regarding CCCGGGCG [8-mer CCCGGGCG], the binding signal was 9.74 in data set [1]; 7.67 in [2]; 9.92 in data set [3]; 9.33 in data set [4]; 9.39 in data set [5]; 9.3 in [6]. Further, the binding signal was 9.59 in [7], 9.45 in data set [8], 9.33 in data set [9] and 9.35 in data set [10].

In the case of GGCCCGAA [8-mer GGCCCGAA], the binding signal in data set [1] is 9.95; in data set [2] it was 7.73; in data set [3], 10; in [4], 9.5; in data set [5], 9.38; in data set [6] it was 9.43. Besides, the binding signal is 9.5 in data set [7], 9.43 in data set [8], 9.4 in data set [9] and 9.41 in data set [10].

For the sequence CCGGGACC [8-mer CCGGGACC], the binding signal is 9.86 in data set [1], 7.91 in [2] and 10 in data set [3].

In the case of CAGGGCCA [8-mer CAGGGCCA], the binding signal in [1] is 9.85; in data set [2], 7.79; in [3] it was 10.1; in data set [4], 9.43; in data set [5], 9.39; in [6], 9.43. Further, the binding signal in data set [7] is 9.46; in [8], 9.32; in [9], 9.38; in data set [10], 9.37; with ISX (Homo sapiens) it was 9.69; with ISX R83Q (Homo sapiens) it was 9.79. The binding signal in [17] was 8.19; in [18] it was 8.03; in data set [19], 8.02; in data set [20], 8.06.

With CATGGGCG [8-mer CATGGGCG], the binding signal in data set [1] is 9.99; in [2] it was 7.59; in data set [3], 10.2.

With GCCTGCGC [8-mer GCCTGCGC], the binding signal in data set [1] is 9.86; in [2] it was 7.43; in data set [3] it was 9.98.

As to AGCGCCAT [8-mer AGCGCCAT], the values for the binding signal in [1], in data set [2] and in [3] were 10, 7.73 and 10.2, respectively.

Regarding GGGACCCC [8-mer GGGACCCC], the binding signal is 9.91 in data set [1], 7.61 in [2] and 9.94 in data set [3].

On to CCAGGCCG [8-mer CCAGGCCG], for which the binding signal in [1] is 9.89; in [2], 7.6; in [3], 9.97; in data set [4], 9.41; in data set [5] it was 9.32; in data set [6], 9.28. Moreover, the binding signal in data set [7] was 9.53; in data set [8], 9.36; in data set [9], 9.43; in data set [10], 9.43.

CTGACGCC [8-mer CTGACGCC]: the binding signal in [1] was 9.85; in data set [2], 7.44; in data set [3] it was 9.94.

In the case of CCTTCGAG [8-mer CCTTCGAG], the results for the binding signal in data set [1], in data set [2] and in data set [3] were 9.87, 7.68 and 10, respectively.
